According to the supplement of paper PMC3334620:
In all, about 33,000 sequences were measured (“E-score (-0.5 to 0.5)”: median about -0.021, highest 2% from about 0.32 on). Some of the results follow.

Molecular target: T1, Zap1 (UniProt P47043)
T1 sequence: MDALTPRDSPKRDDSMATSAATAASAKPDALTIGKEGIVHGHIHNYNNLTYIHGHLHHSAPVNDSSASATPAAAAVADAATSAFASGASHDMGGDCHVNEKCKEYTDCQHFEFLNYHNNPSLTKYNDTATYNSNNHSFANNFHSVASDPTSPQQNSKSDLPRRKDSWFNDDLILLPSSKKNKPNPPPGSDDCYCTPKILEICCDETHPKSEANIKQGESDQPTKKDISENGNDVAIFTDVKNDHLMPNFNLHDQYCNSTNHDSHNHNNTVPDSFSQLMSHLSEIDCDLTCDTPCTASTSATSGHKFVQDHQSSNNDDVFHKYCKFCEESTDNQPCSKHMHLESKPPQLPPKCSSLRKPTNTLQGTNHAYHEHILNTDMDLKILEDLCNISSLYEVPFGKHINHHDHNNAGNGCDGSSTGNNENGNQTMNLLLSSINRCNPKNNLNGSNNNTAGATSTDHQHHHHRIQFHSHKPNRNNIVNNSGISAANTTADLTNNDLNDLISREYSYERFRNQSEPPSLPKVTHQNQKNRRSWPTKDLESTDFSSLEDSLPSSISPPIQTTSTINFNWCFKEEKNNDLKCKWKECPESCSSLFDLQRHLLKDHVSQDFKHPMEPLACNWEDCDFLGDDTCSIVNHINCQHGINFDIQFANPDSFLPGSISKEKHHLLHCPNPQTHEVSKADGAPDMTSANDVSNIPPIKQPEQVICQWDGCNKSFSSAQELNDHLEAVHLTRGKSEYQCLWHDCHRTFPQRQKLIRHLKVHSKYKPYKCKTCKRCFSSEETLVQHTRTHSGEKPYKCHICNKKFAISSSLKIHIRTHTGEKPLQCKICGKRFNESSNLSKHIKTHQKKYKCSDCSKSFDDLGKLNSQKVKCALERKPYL
Assay: PBM E-score (8-mer binding enrichment) (E-score (-0.5 to 0.5)); higher = stronger / more preferred TF binding; most listed sequences are background and not binding sites
Conditions: protein concentration: 200 nM; construct: GST-full length
Procedure, shortened: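 Each ungapped eight-base word and its reverse complement, pooled, received an E-score from the Universal PBM Analysis Suite. Underlying scans, normalised with masliner, recorded fluorescent anti-GST bound to GST-tagged yeast transcription factors. These were applied at about 100-200 nM to universal all-10-mer Agilent arrays double-stranded by primer extension.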

Sequence	PBM E-score
AGCCGTTC	-0.31
GGTCGGAC	-0.0817
CGCAAGCG	-0.256
CTGCATTC	-0.0625
CAACACAC	-0.0928
AAGTCGTC	-0.287
GACAGAGC	-0.235
GCTACCCA	0.204
AACTGGGA	-0.146
AGAGGGTC	0.213
AAAAAGGG	0.243
AGGGAAAA	-0.133
ACTTACCG	0.0716
GGAGGCAC	-0.0954
CACCTGTA	-0.0421
ATACAAAG	0.181
ACACAACG	0.00992
ACTAGACC	0.137
AACTCGCC	-0.0341
AATCATTC	0.0432
ATCGGTGC	-0.124
GCACACGA	0.122
CGAGGGCA	-0.165
ATCGCTAA	0.134
GAATAGAA	0.133

Sequence	PBM E-score
AGACCGAA	0.0806
CTGCTAAG	-0.177
ACGCATGG	-0.0943
GATATCGC	0.209
ACGTACGG	-0.058
GTGGGTCA	0.211
AAGGCAGT	-0.162
AAGGCATA	-0.205
AAGCCGTA	-0.0372
GTCTCCTA	-0.241
TGCTAGAA	-0.0712
CTGAGGCC	-0.182
ACAAAGAA	0.178
GAATAAGC	-0.182
GATAATGC	0.0945
GATCGGAA	-0.183
ATTAACTG	0.197
CGTGACGC	-0.134
CAAACCCC	0.0296
AATCAGCT	0.0895
AACAGCGT	-0.216
CGAATAAA	0.0809
CGAGGCAA	0.121
TCACTCGA	-0.122
AGGCACAG	-0.0255

Sequence	PBM E-score
ATCGGTAA	0.0416
AGCCTTGA	0.0355
AGTTGCTA	0.128
CAGACACA	0.0649
CTAGGGTC	0.309
CACGGGCG	-0.119
GCTGGCCA	0.049
CCTACTTA	0.0226
ACAGACAA	0.227
AAGTCTCT	-0.222
AGACGGGC	-0.112
ATCTACAG	0.0926
GAGCTCAC	-0.231
CAATGTGA	-0.0805
ACGGATTC	-0.116
TATGCGGA	0.00182
CGCACGCA	-0.215
GTATTTCA	0.206
CAGGGACA	-0.00957
AGCTCGGA	-0.325
CACCCCAC	0.249
AGTGTTGG	-0.114
CAACTACG	-0.0266
CGAGTACG	-0.241
GAGGCGCC	-0.197

Sequence	PBM E-score
CGTTGTTA	0.102
TAGGAAGA	-0.0483
AAATATCG	0.094
CGCTGGGA	-0.234
ACCAAGGT	0.24
TCTGTAAA	0.00251
ACCATCCT	-0.113
ATTGAGCC	-0.21
CCTCCTAA	-0.184
CATAAAGG	0.174
CAGTTTGC	-0.0408
CAGTCTCC	-0.289
GATAGACC	0.12
ATAAAAAC	0.203
CACCAGGC	-0.157
TAAGTAGA	-0.0981
TATAAGGA	0.192
CACCTAAG	0.138
CCCTTCAG	0.122
CACCGATA	0.137
ATCTCAGA	-0.108
AGTTATGG	0.198
ATGATGCC	-0.144
ATTCACGC	-0.208
GACTACGA	0.0134

Sequence	PBM E-score
GATGTACC	0.133
GAAGCCCA	-0.257
AACCGGGC	-0.143
CCGGTGCA	-0.0328
AGCTGTAA	-0.00885
CCTTTGAG	0.16
CTCATATC	-0.238
CCGGCAGG	-0.0284
TATGGTCA	0.296
CCCTGCGA	0.0758
CGTCGGCA	-0.215
CGTCGCAA	0.0459
CGGCGTGA	-0.192
AGGGTGCA	-0.0554
CCTACCAA	0.11
CTTTCTGA	0.0969
AACTTGAA	0.0533
AAATCACC	0.216
GTCAAAGA	0.123
GCACAGGA	-0.249
AATCCGCT	-0.151
GGATATAC	-0.0383
ACAGCTCA	-0.137
TACGTAGA	0.0576
ATAGACAG	-0.0693

Sequence	PBM E-score
CATTCCGC	-0.12
CTCGGTTC	-0.0265
AGAGTGCT	-0.0722
AAGTATTC	-0.105
ATTTGGCC	-0.0727
CAGCTCAA	-0.0501
AACGCCTT	-0.0928
ATCATAAT	0.0921
CGGCGTTA	0.0618
CTTACGAC	-0.0242
CGCATTAG	-0.0717
AAAGTCAG	-0.0834
AAAACAAG	0.0929
CGTGCGAG	-0.0393
CAGTGTGG	-0.168
AGCACGTA	-0.26
GCCCCTAA	0.136
CAAACTGC	0.0385
GATACGCC	-0.192
ACGCGTAC	-0.0321
AATTAACT	0.0482
AAGCGTAT	-0.227
AAGCGCTA	-0.082
CCTCGCCG	-0.139
CGCGGGCA	0.125

Sequence	PBM E-score
CAGCCTAC	0.0391
CTCTACGC	-0.0318
ACGGGCGC	-0.188
GCCCGTTA	0.0718
CCCCCATA	-0.0168
GCAATACA	0.164
ATATGCTG	-0.158
CAAGATGC	-0.0715
ACATCGCA	-0.133
GCTTCGTA	-0.0463
CATCAGGC	-0.16
CAAGTATC	-0.0887
ATAAAATC	-0.0354
AGTCACTA	0.14
ACGAGGTG	0.144
ACAATGTA	0.101
TCACATAA	0.154
GCCCGAGC	-0.151
ATCGTTAC	-0.0624
ACCACGCT	-0.117
ATAGGTTG	0.16
GAGAGTAA	0.0833
ATGAGGGA	-0.25
AGATGTTG	-0.165
AGTTTAAA	0.207

Sequence	PBM E-score
GACGCTCA	-0.0401
GCAGAAGC	-0.276
AGGTCGGG	-0.0173
AGCTAGCA	-0.204
ACAGTTAT	0.131
GACCCCAA	0.172
CCATGTGC	0.0395
AATGCAGT	-0.0643
ACTGGATG	-0.125
AGCCAGGG	-0.0473
AGCCTCTC	-0.189
CCACACCG	0.0203
CAGCAGCG	-0.0602
CCTGCGAC	-0.142
CGTAAGCA	-0.143
CAGTCCAG	-0.16
AGATAAAC	0.156
CGGGCCAG	-0.195
CTTGGGGC	0.0259
CAGCGCAA	-0.148
AAGACATG	-0.277
GGCCCAAA	0.0929
ACTGGACC	0.0613
GAATGTGC	-0.196
ATCATGAA	0.119

Sequence	PBM E-score
GATTATAC	0.0748
AAGCCAGG	-0.166
ATCCCCGC	-0.0253
CCGACCAG	0.0232
TGCTGCAA	0.106
CTACTCGC	-0.18
ATAGGTGA	0.0727
CCGGAACC	0.279
CAGAGCAA	-0.0527
CATGACTC	-0.0866
CTGGTGCA	-0.12
TGGCGGAA	-0.103
TCCCCCAA	-0.232
GGATTTAA	0.0103
ACCGGAAA	0.202
CTGTGATC	0.0348
AAATCTAT	0.0866
GCCCATAC	0.0694
GACTGTCA	-0.047
